Test results from the supplement of paper PMC5641865, “A screen for kinase inhibitors identifies antimicrobial imidazopyridine aminofurazans as specific inhibitors of the Listeria monocytogenes PASTA kinase PrkA” (The Journal of Biological Chemistry, 2017).
± gives the standard deviation of the averaged measurements. This is a selection; strong and weak results do not stand in their true shares.

Each compound was assayed on Listeria monocytogenes 10403S (assay: growth inhibition relative to ceftriaxone-alone control; higher = stronger potentiation of ceftriaxone growth inhibition). Conditions: 10 µM; ceftriaxone 1 ug/ml; 12 h.
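Also: End-point A600 read in BHI broth at 37 °C with 2% DMSO, inhibition computed as (1 − OD with compound plus ceftriaxone ÷ OD with ceftriaxone only) × 100.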

SMILES	growth inhibition [%]
O=C1NC(=O)C(c2ccccc2)=C1Nc1ccccc1	3.12 ± 5.5
Fc1ccc(-c2ncn(C3CCNCC3)c2-c2ccnc(Oc3ccc(Cl)cc3)n2)cc1	-4.09 ± 4.8
COc1ccccc1Oc1nccc(-c2c(-c3ccc(F)cc3)ncn2C2CCNCC2)n1	-5.45 ± 3.6
COc1ccccc1C1=C(Nc2ccccc2)C(=O)NC1=O	-1.59 ± 0.35
Cc1cccc(Oc2nccc(-c3c(-c4ccc(F)cc4)ncn3C3CCNCC3)n2)c1C	-10.9 ± 15
Cc1ccccc1-n1c(Cn2nc(-c3cccc(O)c3)c3c(N)ncnc32)nc2cccc(C)c2c1=O	18 ± 12
NC(=O)CCc1ccccc1Oc1nccc(-c2c(-c3ccc(F)cc3)ncn2C2CCNCC2)n1	-10.9 ± 16
O=C1NC(=O)C(c2cccc([N+](=O)[O-])c2)=C1Nc1cc(Cl)c(O)c(Cl)c1	49.2 ± 4.5
Fc1ccc(Oc2nccc(-c3c(-c4ccc(F)cc4)ncn3C3CCNCC3)n2)cc1	-3.17 ± 1.3
CC(C)(C)c1ccc(Oc2nccc(-c3c(-c4ccc(F)cc4)ncn3C3CCNCC3)n2)cc1	-5.44 ± 11
Fc1ccc(-c2ncn(C3CCNCC3)c2-c2ccnc(Oc3cccc(F)c3)n2)cc1	-2.82 ± 2.1
CS(=O)(=O)c1ccc(Oc2nccc(-c3c(-c4ccc(F)cc4)ncn3C3CCNCC3)n2)cc1	10.1 ± 24
O=C1NC(=O)C(c2ccccc2Cl)=C1Nc1cc(Cl)c(O)c(Cl)c1	-10.2 ± 13
O=C(O)c1ccc(Oc2nccc(-c3c(-c4ccc(F)cc4)ncn3C3CCNCC3)n2)cc1	-5.82 ± 12
Fc1ccc(-c2ncn(C3CCNCC3)c2-c2ccnc(Oc3cccc(C(F)(F)F)c3)n2)cc1	-9.81 ± 3.7
